Data on 54 molecules can be found in ChEMBL document CHEMBL4888484, “Replenishing the malaria drug discovery pipeline: Screening and hit evaluation of the MMV Hit Generation Library 1 (HGL1) against asexual blood stage Plasmodium falciparum ,using a nano luciferase reporter read-out” (2022).

Molecules are shown by their SMILES. Out of some 150,000 compounds screened, about 540 (0.36%) showed an effect of 50% or more. This is one part of the list.

This assay has as its system Plasmodium falciparum. As to the kind of experiment: Primary screen in NF54 nanoGlo assay, in single point, at 2uM, 72h; a lower Z score goes with more inhibition. Type of assay: functional, Erythrocyte. As to conditions: timepoint 72 hour.
By % Inhibition is commonly meant the change of the read-out against control, counted positive when it falls. `C#CCOc1ccccc1CNC(=O)[C@H](O)c1ccccc1`: the “% Inhibition” value is -8% and the Z score is reported as 1.02.
For `COc1cc(-c2ncc(F)c(N(C)C)n2)c(Cl)cn1` the same measures were 1% and -0.19.
Taken in the same sequence, the figures for `O=C(Cn1cccn1)N1C[C@](O)(C(F)(F)F)c2cccnc21` were -9% and 1.79.
Turning to `O=C(NCCN1C(=O)COC1=O)Nc1nc2c(s1)CCCC2`, the “% Inhibition” value is -13% and the Z score is recorded as 2.5.
Taken in the same sequence, the figures for `CC(=O)N(CCN1CCCCC1)[C@H]1CCCN(C(=O)c2cc(Cl)ccc2F)C1` were -9% and 1.17.
For `Cc1cc(C(=O)NC[C@]2(O)CCCN(C(=O)Cn3ccnc3)CC2)c(C)o1` the same measures were -5% and 0.46.
For `CCN1C(=O)[C@@H]2CC3(CCN(C(=O)Cc4ccccc4)CC3)CN2C1=O` the same measures were -13% and 1.71.
With `CN(CCC[C@H]1CCCO1)C(=O)NCc1nc(C2CCCCC2)no1`, the “% Inhibition” value is reported as -13% and the Z score is reported as 2.35.
For `CCOc1cccc(COC(=O)c2ccncc2F)n1` the same measures were -5% and 0.56.
Turning to `Cc1ccccc1-c1nccc2ccccc12`, the “% Inhibition” value is -2% and the Z score is 0.3.
For `CCc1noc(-c2cnc3nc(C)ccc3c2Nc2cccc(C(=O)OC)c2)n1` the same measures were -9% and 1.07.
For `CCn1ccc(C(=O)NC(C)(C)c2nc3c(c(C(N)=O)n2)OCO3)n1` the same measures were -10% and 1.31.
For `CN1CCC(CC(=O)NCc2ccc(CN3CCCC3=O)cc2)CC1` the same measures were -4% and 0.54.
`Cc1c(CNc2ccnc3c2cnn3C)cnn1C`: the “% Inhibition” value was -6% and the Z score is listed as 1.03.
For `CCn1cc(-c2cc(-c3ccc4c(c3)OCCO4)nc(N)c2C#N)c(C)n1` the same measures were -3% and 0.57.
For `COc1ncccc1CNC(=O)[C@@H]1CCN(c2cc(C)cc(C)c2)C1=O` the same measures were 31% and -4.42.
`CC(C)(C)c1ncc(CNc2cnc3[nH]ncc3c2)cn1`: the “% Inhibition” value stood at 4% and the Z score is -0.39.
For `CC(C)Cc1noc(CNC(=O)CCn2cnnc2)n1` the same measures were -4% and 0.68.
Take `COc1ccc(-c2c(C)nn3c2NC(=O)CCC3=O)cc1S(=O)(=O)Nc1ccc(C)cc1Cl`: the “% Inhibition” value was 7% and the Z score was -1.33.
Taken in the same sequence, the figures for `Cc1cc(=O)n(CC(=O)Nc2ccccc2C)c(Nc2cccc(F)c2)n1` were -9% and 1.33.
For `Cc1ccccc1OCC(=O)N1C[C@@H]2C[C@H](NS(=O)(=O)c3ccccc3)[C@H]1C2` the same measures were 29% and -3.28.
For `C=C(C)CN(CC)S(=O)(=O)N(C)C1CCCCC1` the same measures were 5% and -0.58.
Take `O=C(O)c1ccccc1CCN1CC[C@H](O)[C@@H](C2CCCC2)C1`: the “% Inhibition” value is -4% and the Z score turned out to be 0.43.
For `Cc1nc(C)c2c(n1)O[C@@H](CN(C)Cc1ccc(C)o1)C2` the same measures were -4% and 0.66.
Regarding `c1cc(N[C@H]2CCOC2)cc(-c2nc(C3CC3)n[nH]2)c1`, the “% Inhibition” value is -8% and the Z score was found to be 1.59.
Taken in the same sequence, the figures for `CC1(C)C[C@@H](C(=O)NC2CCCCC2)CCO1` were -13% and 1.65.
For `COc1cccc2c1OCc1cn(nn1)[C@H]1CN(C(=O)c3ccc4ncsc4c3)C[C@H]1CC(=O)NCCN(C)C2=O` the same measures were -5% and 1.03.
With `C[C@]1(O)CCN(C(=O)c2cccc(OC(F)F)c2)C[C@H]1O`, the “% Inhibition” value is -23% and the Z score was found to be 4.27.
Taken in the same sequence, the figures for `COc1ccc(OC)c2sc(NC(=O)CCOc3ccccc3)nc12` were -17% and 3.26.
As for `Cc1[nH]c(=O)[nH]c(=O)c1S(=O)(=O)N1CCN(c2cccc(Cl)c2)CC1`, the “% Inhibition” value is -8% and the Z score is 0.97.
Taken in the same sequence, the figures for `CCN(CC)S(=O)(=O)N[C@@H](C)CCc1ccc(OC)cc1` were 9% and -1.16.
Taken in the same sequence, the figures for `CC(C)n1c(=O)c(NCc2ccc(N3CCOCC3)cc2)nc2ccncc21` were -1% and 0.11.
Consider `CC(=O)N(CN1C(=O)C2CCCCC2C1=O)c1ccccc1` (stereo not drawn), for which the “% Inhibition” value is on record as -1% and the Z score amounted to 0.1.
Taken in the same sequence, the figures for `CCc1noc(C)c1NC(=O)N1CCOC(C(F)(F)F)C1C` (stereo not drawn) were -4% and 0.5.
For `Cc1ccc(NC(=O)c2c([O-])n(-c3ccc(C)cc3)n[n+]2Cc2ccccc2)cc1`, the “% Inhibition” value turned out to be 4% and the Z score is listed as -0.47.
Taken in the same sequence, the figures for `Cc1cc(=O)[nH]c(NCCNC(=O)c2cc(C#N)c[nH]2)n1` were -3% and 0.32.
As for `CCOC(=O)c1cccnc1NCc1ccc(N2CCNC(=O)C2)cc1`, the “% Inhibition” value is -5% and the Z score came to 0.96.
Taken in the same sequence, the figures for `Cc1ccc(C(=O)N2CCc3[nH]nc(C(=O)N4CCN(c5ccccc5C)CC4)c3C2)cc1` were -6% and 0.8.
Taken in the same sequence, the figures for `Cc1nc(C2CC2)nc(N2CCN(C(=O)c3ccc(F)cc3)CC2)c1Cc1c(F)cccc1Cl` were -9% and 1.51.
For `CC(C)Nc1ncc(-c2nc(C3CCCC3)nn2CCO)cn1` the same measures were 0% and -0.07.
Turning to `C[C@H]1CN(Cc2cc3ccccc3n2C)CCS(=O)(=O)C1`, the “% Inhibition” value is listed as -6% and the Z score is recorded as 0.84.
Taken in the same sequence, the figures for `CCn1ncnc1CN(C)Cc1ccc2c(c1)CN(C)C2` were 17% and -2.22.
Taken in the same sequence, the figures for `Cc1ccc2[nH]nc(-c3nc(-c4cccnc4)no3)c2c1` were -6% and 1.17.
Taken in the same sequence, the figures for `COc1ccc(OCc2nn(-c3nc4ccccc4s3)c(N)c2-c2ccccc2)cc1` were -10% and 1.34.
Take `COCCCN(CCOC)C(=O)Cc1csc(C)n1`: the “% Inhibition” value is listed as -5% and the Z score is 0.9.
Taken in the same sequence, the figures for `Cc1cccc(CC(=O)N2CCC3(CC2)Nc2cccnc2N=C3NC2CCCC2)c1` were 34% and -3.8.
For `CC(C)N(C)C(=O)c1coc(COc2ccc3c(c2)OCO3)n1` the same measures were -3% and 0.47.
Turning to `CNS(=O)(=O)c1cc(C(=O)N2CCC(CNC(=O)c3cnn(C)c3)CC2)cc(C)c1C`, the “% Inhibition” value was found to be 6% and the Z score is -0.99.
For `Cc1cnn(C2CN(Cc3cccnc3)C2)c1` the same measures were -8% and 1.31.
Taken in the same sequence, the figures for `Cc1cnc(CCNC(=O)[C@@H]2CCC(=O)N2C)nc1` were -1% and 0.24.
In the case of `CN(Cc1cc2ccccc2s1)C(=O)c1cn(C[C@H]2CCCNC2)nn1`, the “% Inhibition” value was determined as 12% and the Z score is given as -1.6.
For `O=C(Nc1cccc2c1CCCC2)[C@@H]1CC=CCC1` the same measures were -20% and 1.77.
For `C[C@@H]1[C@H](N(C)CCO)CCN1c1nccc2occc12` the same measures were -12% and 2.24.
For `Cc1cnn(CCc2nc(CC(N)=O)nn2Cc2c(F)cccc2Cl)c1` the same measures were -8% and 0.88.
